Experimental data taken from the supplement of paper PMC10126150.
Values marked as one replicate rest on one cluster of the flow cell; about a third of the high ones do not repeat.
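Also: ATP exposure 15 min at 22 °C before imaging.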

The sequences below were run on ATP (assay: switch fluorescence ratio, 500 uM ATP over buffer (Cy3 cluster intensity, sum of 5 cycles each) (fold (ratio)); higher = stronger signal-on switching upon ATP binding; sequences stand for … in TCGTCGGCAGCGTCAGATGTGTATAAGAGACAGTTTTTTTTTTTTTTTTTTTTTTTTT…TC). Conditions: aptamer strand: ATP DNA aptamer (quencher-CACCTGGGGGAGTATTGCGGAGGAAGG + anchor), 100 nM annealed; ATP concentration: 500 uM; one replicate.
Outline: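 Values give the fluorescence ratio for each switch-domain sequence, averaged from per-cluster ratios of summed target-cycle to summed buffer-cycle Cy3 intensity. The Cy3-labelled switching-strand clusters sat on a modified Illumina MiSeq flow-cell, were annealed to 100 nM quencher-labelled ATP aptamer, and were imaged in selection buffer, then after 15 min with 500 uM ATP at 22 °C. Five cycles ran with NaOH stripping and re-annealing between them, and clusters outside 100-1000 RFU were excluded.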
ATGATGAGT was tested, and the switch fluorescence ratio was 0.995.
Work on ATGATGATA yielded a switch fluorescence ratio of 1.
Sequence ATGATGTCTA has a switch fluorescence ratio of 0.996.
Sequence ATGCAAACTT has a switch fluorescence ratio of 1.06.
Work on ATGCAAATAG yielded a switch fluorescence ratio of 1.15.
For ATGCAACCGA, the switch fluorescence ratio was 1.12.
Work on ATGCAACCGT yielded a switch fluorescence ratio of 1.04.
With ATGCAACTGC the switch fluorescence ratio was 1.16.
Sequence ATGCAAGAAA has a switch fluorescence ratio of 0.976.
With ATGCAAGGGG the switch fluorescence ratio was 1.03.
Work on ATGCAATGCA yielded a switch fluorescence ratio of 0.956.
ATGCAATTAG gave a switch fluorescence ratio of 1.22.
For ATGCACTCGT, the switch fluorescence ratio was 0.987.
Work on ATGCATGG yielded a switch fluorescence ratio of 1.02.
For ATGCCCTCGG, the switch fluorescence ratio was 0.968.
For ATGCCGGGTA, the switch fluorescence ratio was 0.957.
In the case of ATGCCTAACC, the switch fluorescence ratio is reported as 1.04.
For ATGCCTAACT, the switch fluorescence ratio was 0.97.
ATGCCTGACG showed a switch fluorescence ratio of 1.13.
Sequence ATGCGAACGG has a switch fluorescence ratio of 0.965.
In the case of ATGCGCCCTT, the switch fluorescence ratio is reported as 0.984.
ATGCGCGTCC gave a switch fluorescence ratio of 1.06.
ATGCGCTAAA showed a switch fluorescence ratio of 0.991.
ATGCGCTGAG showed a switch fluorescence ratio of 1.01.
ATGCGGATTA was tested, and the switch fluorescence ratio was 0.994.
In the case of ATGCGGGCTC, the switch fluorescence ratio is reported as 0.985.
For ATGCGGGTCG, the switch fluorescence ratio was 0.997.
Work on ATGCGGTTTG yielded a switch fluorescence ratio of 0.994.
Work on ATGCGTATAA yielded a switch fluorescence ratio of 1.03.
In the case of ATGCGTCGAG, the switch fluorescence ratio is reported as 0.982.
ATGCGTTTTT was tested, and the switch fluorescence ratio was 0.996.
ATGCTAACGC gave a switch fluorescence ratio of 1.07.
Work on ATGCTAGCTT yielded a switch fluorescence ratio of 1.04.
For ATGCTCTAGG, the switch fluorescence ratio was 1.02.
With ATGCTGTGAC the switch fluorescence ratio was 1.
ATGCTTGGGC was tested, and the switch fluorescence ratio was 0.97.
ATGGAAATGA was tested, and the switch fluorescence ratio was 0.994.
Work on ATGGAAATTT yielded a switch fluorescence ratio of 1.06.
Work on ATGGAATGGT yielded a switch fluorescence ratio of 0.955.
ATGGAATTGA gave a switch fluorescence ratio of 1.01.
With ATGGACCAAG the switch fluorescence ratio was 1.02.
ATGGACCTCA was tested, and the switch fluorescence ratio was 1.02.
Work on ATGGACTCTT yielded a switch fluorescence ratio of 0.99.
Sequence ATGGAGGGG has a switch fluorescence ratio of 0.956.
ATGGATACAT gave a switch fluorescence ratio of 1.02.
ATGGATCCA was tested, and the switch fluorescence ratio was 0.994.
ATGGATGCCG showed a switch fluorescence ratio of 1.14.
Sequence ATGGATTAAG has a switch fluorescence ratio of 1.01.
For ATGGCAGGGA, the switch fluorescence ratio was 0.993.
With ATGGCAGGTG the switch fluorescence ratio was 1.02.
Sequence ATGGCATTGC has a switch fluorescence ratio of 0.969.
With ATGGCCGACC the switch fluorescence ratio was 1.13.
ATGGCCGGGC showed a switch fluorescence ratio of 1.04.
ATGGCCTGCA showed a switch fluorescence ratio of 1.03.
ATGGCGCCTC showed a switch fluorescence ratio of 1.02.
For ATGGCGCT, the switch fluorescence ratio was 0.941.
ATGGCGGGA showed a switch fluorescence ratio of 1.
For ATGGCGTCTA, the switch fluorescence ratio was 1.03.
Sequence ATGGCTCTAC has a switch fluorescence ratio of 1.04.
ATGGGAGCAC showed a switch fluorescence ratio of 0.977.
ATGGGAGGAC showed a switch fluorescence ratio of 1.01.
Sequence ATGGGAGGG has a switch fluorescence ratio of 0.974.
Sequence ATGGGCAAGT has a switch fluorescence ratio of 1.
ATGGGCCCTC showed a switch fluorescence ratio of 1.02.
With ATGGGCTAGT the switch fluorescence ratio was 0.954.
ATGGGGCTA showed a switch fluorescence ratio of 0.966.
Work on ATGGGTACGA yielded a switch fluorescence ratio of 1.
ATGGGTATAC showed a switch fluorescence ratio of 1.01.
Work on ATGGGTTGAA yielded a switch fluorescence ratio of 0.992.
ATGGTACCAT was tested, and the switch fluorescence ratio was 1.03.
Work on ATGGTACGTG yielded a switch fluorescence ratio of 1.03.
In the case of ATGGTCTAAT, the switch fluorescence ratio is reported as 1.03.
For ATGGTGCGAG, the switch fluorescence ratio was 0.988.
Sequence ATGTAAAGCC has a switch fluorescence ratio of 0.987.
ATGTACCGCT showed a switch fluorescence ratio of 1.05.
For ATGTACGAAG, the switch fluorescence ratio was 1.01.
For ATGTAGGGAT, the switch fluorescence ratio was 0.948.
ATGTAGTCCG showed a switch fluorescence ratio of 0.993.
For ATGTATAAAA, the switch fluorescence ratio was 0.984.
ATGTATATGA showed a switch fluorescence ratio of 0.997.
ATGTATCAGA gave a switch fluorescence ratio of 1.01.
ATGTATGGCC was tested, and the switch fluorescence ratio was 0.975.
Sequence ATGTCACAGC has a switch fluorescence ratio of 0.981.
Work on ATGTCATGTT yielded a switch fluorescence ratio of 0.937.
ATGTCGCGTA was tested, and the switch fluorescence ratio was 0.962.
ATGTCGGGAA showed a switch fluorescence ratio of 0.977.
ATGTCTTCGA was tested, and the switch fluorescence ratio was 0.982.
In the case of ATGTGAAGTA, the switch fluorescence ratio is reported as 1.04.
ATGTGAAT was tested, and the switch fluorescence ratio was 0.966.
In the case of ATGTGAGCAT, the switch fluorescence ratio is reported as 1.02.
With ATGTGAGTA the switch fluorescence ratio was 1.
ATGTGCCTGA was tested, and the switch fluorescence ratio was 1.01.
ATGTGCGTGA was tested, and the switch fluorescence ratio was 0.992.
Sequence ATGTGCTTTC has a switch fluorescence ratio of 0.983.
Work on ATGTGGAGGC yielded a switch fluorescence ratio of 1.04.
ATGTGGGTT gave a switch fluorescence ratio of 0.994.
In the case of ATGTGTACTT, the switch fluorescence ratio is reported as 1.01.
Sequence ATGTGTAGCA has a switch fluorescence ratio of 1.01.
ATGTGTCT was tested, and the switch fluorescence ratio was 1.04.
Work on ATGTGTGAAC yielded a switch fluorescence ratio of 1.04.
